Data from PubChem BioAssay AID624417 (National Center for Advancing Translational Sciences (NCATS), 2012).
The campaign covered roughly 410,000 compounds. About 6,400 (1.6%) were called active. Inconclusive results, whose numbers are uncertain, are shown with a selection of clear calls. Calls follow the shape of the dose curve; as a rule, active = well fitted inhibition curve with a large enough effect; inconclusive = small, poorly fitted or top-dose-only effect; inactive = no such curve, though single readings can be large or run the other way. Potencies of inconclusive entries are doubtful fits and often do not repeat.

target: Glucagon-like peptide 1 receptor (Homo sapiens) (UniProt P43220); experiment: qHTS of GLP-1 Receptor Inverse Agonists (Inhibition Mode); conditions: HEK293 GLP-1R CRE-luciferase, luminescence, 24 h, GLP-1R form is constitutively active; series mostly up to 38.3 µM; also: nearly all actives have a fitted effect of over 55% in size
Outline: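 GLP-1R inverse agonism mode: basal reporter luminescence in engineered HEK293 cells measured after one day of compound exposure at 37 deg C, with a 12 min room-temperature detection step.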
Potency is read from the fitted curve at half-maximal effect; tags tell the direction and shape of the fitted curve.

Sequence of UniProt P43220 (P43220 whole entry, looked up): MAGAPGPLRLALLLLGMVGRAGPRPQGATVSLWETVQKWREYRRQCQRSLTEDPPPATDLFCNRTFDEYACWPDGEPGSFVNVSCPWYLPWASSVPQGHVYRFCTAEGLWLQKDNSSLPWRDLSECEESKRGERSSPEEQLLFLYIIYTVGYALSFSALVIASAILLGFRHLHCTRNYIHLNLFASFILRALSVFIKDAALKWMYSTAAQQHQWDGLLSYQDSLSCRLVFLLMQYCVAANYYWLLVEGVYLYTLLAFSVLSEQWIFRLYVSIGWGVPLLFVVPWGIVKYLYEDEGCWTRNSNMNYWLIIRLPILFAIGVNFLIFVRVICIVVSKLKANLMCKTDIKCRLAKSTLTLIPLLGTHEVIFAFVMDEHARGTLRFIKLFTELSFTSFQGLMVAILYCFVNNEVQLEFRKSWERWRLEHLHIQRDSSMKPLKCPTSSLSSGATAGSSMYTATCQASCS

Potency, inactive:
CCn1nccc1NC(=O)c1csc([C@H]2C[C@H](O)[C@@H](CO)O2)n1
COc1ccc(-c2csc3nc(C(C)(C)C)oc(=O)c23)cc1OC

Potency, inconclusive:
NS(=O)(=O)c1ccc(NC(=O)c2ccc(S(=O)(=O)N3CCc4ccccc43)cc2)cc1 28.2 µM [inhibitor, single point]
CC(C)C1CC(CCN)(Cc2ccccc2)CCO1 (configuration not stated) 28.2 µM [inhibitor, single point]
O=C(/C=C/c1ccc(Cl)c(Cl)c1)Nc1cccnc1 10 µM [inhibitor, partial curve, poor fit]
CCCCn1nc(NC(=O)CCC)c2cc3cc(OC)ccc3nc21 22.4 µM [inhibitor, single point]
CC(C)(C)c1ccc2c(c1)OC(C(=O)N/N=C\c1ccccn1)CO2 (configuration not stated) 12.6 µM [inhibitor, single point]
Cc1ccccc1Cn1c(C)c(C(=O)NCc2cccc(Cl)c2)sc1=O 31.6 µM [inhibitor, single point]
CSc1cccc(CN2CCN(Cc3ccc(F)c(F)c3)C(CCO)C2)c1 (configuration not stated) 10 µM [inhibitor, partial curve, poor fit]
Cc1ccc(CN2[C@@H]3c4ccccc4C[C@@H]3OCCS2(=O)=O)cc1 15.8 µM [inhibitor, partial curve, poor fit]
O=C(N/N=C1/C(=O)c2cccc3cccc1c23)c1ccc(Cl)cc1 12.6 µM [inhibitor, single point]
CC(=O)Nc1ccc(C(=O)CN2C(=O)NC3(CCCCCC3)C2=O)c(F)c1 1 µM [inhibitor, full curve, poor fit]
CCCn1c(=N)n(CC(O)c2ccco2)c2ccccc21 (configuration not stated) 35.5 µM [inhibitor, partial curve, poor fit]
COc1ccc2c(C(=O)CCl)c[nH]c2c1 28.2 µM [inhibitor, single point]
COc1ccc(OC(C)C(=O)NCc2nc(-c3ccc(Cl)cc3)no2)cc1 (configuration not stated) 8.91 µM [inhibitor, partial curve, poor fit]
CCCCN(C(=O)CCC(=O)Nc1cc(C)on1)C(C(=O)NC1CCCC1)c1ccc(OCC)cc1 (configuration not stated) 10 µM [inhibitor, partial curve]
O=C(NCCOC(=O)Nc1cccc2ccccc12)OCc1ccccc1 8.91 µM [inhibitor, partial curve, poor fit]
